In all, about 310,000 compounds went through this assay and about 2,200 (0.71%) showed an effect of 50% or more. The effect is printed as a negative number. This is one part of the list.
biological target: human ether-à-go-go-related gene (hERG) potassium channel (human, UniProt Q12809); assay: primary screen, population patch clamp on CHO cells stably expressing hERG
Sequence (Q12809 whole entry, looked up): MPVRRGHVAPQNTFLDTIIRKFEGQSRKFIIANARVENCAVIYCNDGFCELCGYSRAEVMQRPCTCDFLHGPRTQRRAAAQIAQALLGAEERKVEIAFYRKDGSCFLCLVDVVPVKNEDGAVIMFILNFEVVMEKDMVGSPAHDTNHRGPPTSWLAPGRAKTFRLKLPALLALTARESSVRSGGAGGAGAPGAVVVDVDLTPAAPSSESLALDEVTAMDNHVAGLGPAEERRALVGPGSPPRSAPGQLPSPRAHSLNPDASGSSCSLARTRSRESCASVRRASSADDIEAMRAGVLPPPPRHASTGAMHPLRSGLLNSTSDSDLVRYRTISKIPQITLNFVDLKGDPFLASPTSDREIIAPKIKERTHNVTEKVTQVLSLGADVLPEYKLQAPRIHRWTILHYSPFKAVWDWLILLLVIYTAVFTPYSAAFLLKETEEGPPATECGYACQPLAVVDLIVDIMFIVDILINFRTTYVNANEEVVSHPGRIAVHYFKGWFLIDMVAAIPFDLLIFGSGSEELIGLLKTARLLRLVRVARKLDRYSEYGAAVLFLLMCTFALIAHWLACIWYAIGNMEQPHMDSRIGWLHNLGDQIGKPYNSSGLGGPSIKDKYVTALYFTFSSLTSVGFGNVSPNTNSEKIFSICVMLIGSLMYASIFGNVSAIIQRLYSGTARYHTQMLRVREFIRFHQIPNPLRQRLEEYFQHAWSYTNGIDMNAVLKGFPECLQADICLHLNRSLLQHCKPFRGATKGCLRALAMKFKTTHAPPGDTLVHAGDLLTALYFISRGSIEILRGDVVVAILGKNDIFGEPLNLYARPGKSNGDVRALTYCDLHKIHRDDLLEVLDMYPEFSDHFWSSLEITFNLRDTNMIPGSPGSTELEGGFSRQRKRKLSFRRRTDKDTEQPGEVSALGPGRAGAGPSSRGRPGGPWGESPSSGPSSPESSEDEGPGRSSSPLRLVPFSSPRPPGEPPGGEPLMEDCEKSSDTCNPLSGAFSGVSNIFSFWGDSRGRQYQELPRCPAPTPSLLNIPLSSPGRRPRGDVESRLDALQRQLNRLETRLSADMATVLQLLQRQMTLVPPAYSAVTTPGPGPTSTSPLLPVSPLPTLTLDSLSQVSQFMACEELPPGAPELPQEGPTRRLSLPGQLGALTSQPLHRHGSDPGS

Row | SMILES | hERG current change (%, negative = inhibition) at 1uM [%]
1 | Cc1cc(NC(=O)CSc2n[nH]c(CC(C)C)n2)no1 | 5.61
2 | O=C(CSc1nc2c(c(=O)n1-c1ccc(F)cc1)SCC2)Nc1ccc2c(c1)OCO2 | 13.1
3 | Cc1ccc(Nc2nc(N)c(C#N)c(CC#N)c2C#N)cc1 | 6.06
4 | CC[C@]12CCCN3CCc4c(n(c5ccccc45)C(=O)C1)[C@@H]32 | -70.5
5 | O=[N+]([O-])c1ccccc1N(CC1CO1)S(=O)(=O)c1ccccc1 (centres unmarked) | 10.1
6 | O=C(CNC(=O)c1cccs1)OCC(=O)c1ccccc1Cl | 12.9
7 | O=C(c1ccc2c(c1)OCCO2)C1CCN(C(=O)Nc2ccc(F)cc2)CC1 | 10.2
8 | COCCN(C(=O)c1ccccc1Oc1ccccc1)c1c(N)n(CC(C)C)c(=O)[nH]c1=O | 10.4
9 | O=C(Nc1cccc(C(=O)N2CCOCC2)c1)c1ncn[nH]1 | 8.2
10 | COc1cc2ccccc2cc1C(=O)OCC(=O)N(CC(C)C)c1c(N)n(Cc2ccccc2)c(=O)[nH]c1=O | 5.83
11 | CSC1=N/C(=C\c2ccc3c(c2)OCO3)C(=O)S1 | 8.48
12 | CCC/C(O)=C1\C(=O)CC(c2ccccc2)CC1=NC(C)C(=O)O (centres unmarked) | 16.9
13 | CC(C)(NS(=O)(=O)OCC(Cl)(Cl)Cl)c1ccccc1 | 4.67
14 | COC(=O)C1=C(C)N(CCc2cc(OC)c(OC)c(OC)c2)C(=O)N[C@H]1c1ccc(Br)cc1 | -0.0799
15 | COc1ccc(N2C(=O)/C(=C/c3cccnc3)NC2=S)cc1 | 5.95
16 | COc1cc(C(=O)NNC(=O)c2cccn2C)cc(OC)c1OC | 1.09
17 | CC1CN(S(=O)(=O)c2ccc(C(=O)Nc3nc(-c4cc5ccccc5o4)cs3)cc2)CC(C)O1 (centres unmarked) | 10.2
18 | Cc1ccccc1OCCOC(=O)c1ccc(S(=O)(=O)N2CCCC2)cc1 | 12
19 | COc1ccc(CN2CCC(=O)NC2=O)cc1 | 9.39
20 | Cc1ccc(C(=O)Nc2ccccc2N2CCCC2)cc1 | 10.5
21 | O=S(=O)(NCc1ccco1)c1ccc(Cl)cc1Cl | 14.8
22 | COc1cc(OC)c2c(C)cc(=O)oc2c1 | 14.8

Row | SMILES | hERG current change (%, negative = inhibition) at 1uM [%]
23 | CCOc1cc(NC(=S)NCCCOC)c(OCC)cc1NC(=O)c1cccs1 | 10.7
24 | Cc1ccc(NC(=S)NC(CO)C(O)c2ccc([N+](=O)[O-])cc2)cc1 (centres unmarked) | 6.48
25 | CCc1cc(=O)[nH]c(SCc2ccc(C)cc2)n1 | -2.05
26 | Cc1cc(C)cc(Cn2ncc(Cl)c(Cl)c2=O)c1 | 5.38
27 | COc1ccc(CNC(=O)C2CCN(C(=O)c3ccc(-c4ccccc4)cc3)CC2)cc1 | 8.39
28 | CCOc1[nH]n(-c2ccc(Cl)cc2)c(=O)c1C=Nc1ccc(OC)cc1 | 7.51
29 | COc1ccc(-n2c(C)cc(C=O)c2C)cc1Cl | 5.55
30 | COc1ccc(S(=O)(=O)N2CCC(C(=O)N3CCC(C(N)=O)CC3)CC2)cc1Cl | 12.5
31 | CCOC(=O)c1nn(-c2ccccc2)cc1O | 15.4
32 | Oc1c(C(c2ccco2)N2CCN(C(c3ccccc3)c3ccccc3)CC2)sc2ncnn12 (centres unmarked) | 6.31
33 | CN(C(=O)CN1C(=O)S/C(=C\c2ccc(Cl)cc2)C1=O)C1CCS(=O)(=O)C1 (centres unmarked) | 2.35
34 | Cc1ccc(-c2nc(-c3ccncc3)no2)cc1C | 12.6
35 | CC1=C(C#N)C(c2ccccc2)C2=C(N1)c1ccccc1C2=O (centres unmarked) | 8.87
36 | C/C(Nc1cccc(F)c1)=C(/C#N)C(N)=O | 11.5
37 | Cc1nc2cc(S(=O)(=O)C(F)(F)F)ccc2s1 | 3.22
38 | Cc1ccccc1OCc1nnc(SCC(=O)Nc2c(C)n(C)n(-c3ccccc3)c2=O)n1-c1ccccc1 | 1.33
39 | CCO[C@H]1OC(C(=O)N2CCOCC2)=C[C@@H](c2ccc3c(c2)OCO3)[C@@H]1CCCO | 12
40 | COC(CNC(=O)CNC(=S)N(Cc1ccccc1)Cc1cccnc1)OC | -2.33
41 | O=C(NNc1c2ccccc2nc2ccccc12)c1ccc(O)cc1O | 14.4
42 | CC(OC(=O)C1CCCC1)C(=O)Nc1ncc(Cl)cc1Cl (centres unmarked) | 11.4
43 | Cc1cccc(NC(=O)CNC(=O)Cc2ccc3c(c2)OCCO3)c1C | 13.5
44 | CCN1CCN(C(=O)Cc2ccccc2OC)CC1 | 11.9

Row | SMILES | hERG current change (%, negative = inhibition) at 1uM [%]
45 | CCOC(=O)/C(C#N)=C1/C=CN(c2ccc(C)cc2)C=N1 | -0.432
46 | COc1ccccc1N(CC(=O)NCC1CCCO1)C(=O)Cn1nnc(-c2cccs2)n1 (centres unmarked) | 7.73
47 | COc1ccc(C)cc1NC(=O)CN1CCN(c2ccccn2)CC1 | 5.33
48 | Cc1[nH]c(C)c(S(=O)(=O)NCCc2ccccc2)c1C(=O)N1CCCC1 | 14.8
49 | CCc1cc2c(=O)c(Oc3ccccc3)c(C)oc2cc1O | -19.4
50 | O=C(CCN=C1NS(=O)(=O)c2ccccc21)OCc1cccc(Cl)c1 | 11.1
51 | Cc1ccc(N(Cc2ccc(C(=O)Nc3c(C)n(C)n(-c4ccccc4)c3=O)cc2)S(C)(=O)=O)cc1C | 8.53
52 | CCc1ccc(C2CC(c3cccc(OC)c3)n3nc(N)nc3N2)cc1 (centres unmarked) | 4.1
53 | COC(=O)c1cn(CCOc2ccccc2OC)c2ccccc12 | 13.4
54 | COc1cc(OC)cc(C(=O)Nc2cccc3cccnc23)c1 | 19.3
55 | COc1ccc(C(=O)Nc2ccc(Oc3ncnc4sc(-c5ccccc5)cc34)cc2)cc1OC | 9.25
56 | COc1cccc(NC(=O)C2C3C=CC4(O3)C2C(=O)N(CCN2CCCCC2)C4C(=O)NC2CCCCC2C)c1 (centres unmarked) | 19.2
57 | CC(=O)Nc1ccc(-c2csc(NC(=O)Cc3ccccc3F)n2)cc1 | 5.85
58 | COc1ccc(Nc2nnc(SC(C(=O)Nc3cc(C)ccc3C)c3ccccc3)s2)cc1 (centres unmarked) | 3.8
59 | NS(=O)(=O)c1cccc(NC(=O)CCCC2CCCCC2)c1 | 7.26
60 | COc1cccc(N(C(=O)Cn2nnc(-c3ccc(C)o3)n2)C(C(=O)NC2CCCC2)c2ccncc2)c1 (centres unmarked) | 14.5
61 | O=C1CC(=O)N(c2ccc(Cl)cc2Cl)C(=O)N1 | 10.3
62 | CN(C)/C=C(\C=N\OCc1ccc(Cl)cc1Cl)C(=O)Nc1ccc(Cl)c(Cl)c1 | 12.5
63 | COc1ccc(-c2cc(C(=O)NCC3CCCO3)on2)cc1OC (centres unmarked) | 9.24
64 | CC(C)CNc1cc(N2CCCC2)ccc1[N+](=O)[O-] | 3.07
65 | Cc1sc2nc(COC(=O)c3c(F)cccc3F)[nH]c(=O)c2c1C | 3.23
66 | COc1ccc(CN2CCC(n3nccc3NC(=O)c3cccc(F)c3)CC2)cc1O | -81.5

Row | SMILES | hERG current change (%, negative = inhibition) at 1uM [%]
67 | COc1cc2nc(N(CCCN(C)C)C(=O)c3ccc(C(=O)c4ccccc4)cc3)sc2cc1OC.Cl | -26
68 | COc1ccc(Cl)cc1NC(=O)CN1CCC(NC(=O)C2CC2)CC1 | -19.1
69 | COC(=O)c1sc(N2C(=O)C(O)=C(C(=O)c3ccc(C)o3)C2c2cccs2)nc1C (centres unmarked) | 2.84
70 | CCOc1ccc(S(=O)(=O)NC2CCCCCC2)cc1 | 15.8
71 | CC(=O)c1ccc(S(=O)(=O)Nc2ccc(-n3c(C)nc4ccccc4c3=O)cc2)cc1 | -13.2
72 | O=C(N/N=C/c1ccccc1)c1sccc1OCc1ccc(F)cc1 | 5.11
73 | Cc1cc(C)cc(NS(=O)(=O)c2ccc(NC(=O)c3ccccc3C(=O)O)cc2)c1 | 11
74 | Cc1nc(=O)c(-c2ccccc2)c(C)n1-c1ccc(Br)cc1 | 12.6
75 | CCn1c(=O)n(CC)c2cc(N3CCCC3)c(NC(=O)c3cccc(C)c3)cc21 | 13.9
76 | N#Cc1c(-c2ccco2)nc(SCC(=O)Nc2ccc(S(N)(=O)=O)cc2)[nH]c1=O | 4.26
77 | CN(CC(=O)Nc1ccc(Cl)c(Cl)c1)CC(=O)Nc1ccc2c(c1)OCO2 | 13.6
78 | CCOc1ccc(N2C(=O)CC(NCCc3ccncc3)C2=O)cc1 (centres unmarked) | 4.99
79 | Cc1c(Br)c([N+](=O)[O-])nn1C(C)C(=O)N1CCc2ccccc2C1 (centres unmarked) | 9.83
80 | O=C1C=C(c2ccccc2)CC(c2cccs2)C1n1cnc([N+](=O)[O-])c1 (centres unmarked) | 9.79
81 | Cc1ccc(/C=C2/C(=O)NC(=O)N(CCc3ccc(F)cc3)C2=O)o1 | 2.54
82 | O=C(CNS(=O)(=O)c1cccc(F)c1)OCC(=O)N1CCCC1=O | -1.51
83 | COc1ccc2c(c1)-c1nc(NC(=O)c3cccs3)sc1CC2 | -4.19
84 | CC(=O)Nc1ccc(N2C(=O)c3ccc(C(=O)Nc4nnc(SCc5ccc(F)cc5)s4)cc3C2=O)cc1 | 12.7
85 | CCCOc1ccc(OCCOCCN2CCc3ccccc3C2)cc1 | -33.2
86 | CS(=O)(=O)N1CCN(c2ccccc2NC(=O)c2ccco2)CC1 | -8.16

Source: article PMC4336329 (PLoS ONE, 2015)
